Experimental findings from PMC5892938 are described below.

The other results are listed elsewhere or left out. The exact form of the protein is not confirmed.

This test deals with GST-SBP-ILF3 (Homo sapiens) (UniProt Q12906). Nature of the test: targeted RNA Bind-n-Seq. As to conditions: RBNS binding buffer: 25 mM Tris pH 7.5, 150 mM KCl, 3 mM MgCl2, 0.1% Tween, 0.5 mg/mL BSA, 1 mM DTT; 27 nM protein, 750 pM RNA pool; temperature not stated; high values mean tight binding; sequences stand for … in GGGUAAAAGCGAGGUGAA…CGGGACAAGUAUUAUGGG
For “UUUUUUUUUUGAGAGGGCUGCCCUCUCCUA [tttttgagapaired]”, the binding signal (log2 fold change) turned out to be 1.05. Next, “UUUUUUUUUUGAGAUCGAAACGAUCUCCGG [tttttgagapaired]”: 0.266; “GUGUGUUGUGUUGGCCUCUAACACAGCGCA [gtspaired]”: -0.477. The value for “GGUUGUGGUGUUGGCACCUAACACCACAGC [gtspaired]” was -0.26.

On to “UUUUUUUUUUGAGAUCGAGACGAUCUUCUA [tttttgagapaired]”, for which the binding signal (log2 fold change) was -0.0314.

With “UUCUCUUCUCCUCCGCCGGAGGGGGAGAGA [ctspaired]”, the binding signal (log2 fold change) was -0.451.

With “GUGUGGUGUGUUGGAAUCUAACACAUCGCA [gtspaired]”, the binding signal (log2 fold change) was -0.615.

For the sequence “UUUUUUUUUUGAGAUGGUAGCCAUCUUCUG [tttttgagapaired]”, the binding signal (log2 fold change) stood at 0.358. The value for “UUUUUUUUUUGAGAGGGAUGCCCUCUCCAG [tttttgagapaired]” was 0.444; that for “UUUUUUUUUUGAGAGGGAUCCCCUUUCCAG [tttttgagapaired]” was 0.196. On to “UUUUUUUUUUGAGAUGGGUCCCAUCUCCUA [tttttgagapaired]”, for which the binding signal (log2 fold change) stood at 0.689.

For the sequence “UUUUUUUUUUGAGAUGGGGACUAUCUCCUG [tttttgagapaired]”, the binding signal (log2 fold change) came out at 0.756. Next, “UUUUUUUUUUGAGACGGUGACCGUCUUCUA [tttttgagapaired]”: 0.455; “GGUGUGUGUGUUGGCACCUAACACAUACAC [gtspaired]”: -0.582; “UUUUUUUUUUGAGAGGGAAGCCCUCUCCGG [tttttgagapaired]”: 0.333.

With “GGUUGGUGUGUUGGCUCCUAACACAUCAAC [gtspaired]”, the binding signal (log2 fold change) was -0.651.

For the sequence “UUUUUUUUUUGAGACCGGGACGGUCUCCGG [tttttgagapaired]”, the binding signal (log2 fold change) is 0.0777. Next, “UUUUUUUUUUGAGACUGGUGCAGUCUCCAG [tttttgagapaired]”: 0.298; “UUUUUUUUUUGAGACGGAAGCCGUCUUCUG [tttttgagapaired]”: 0.584. Next, “UUUUUUUUUUGAGACGGGAACUGUCUCCAG [tttttgagapaired]”: 0.854; “UUUUUUUUUUGAGACCGGGUCGGUUUCCUG [tttttgagapaired]”: 0.668; “GGUGUGUGUGUUGGUCUCUAACACAUACAC [gtspaired]”: -0.864. As for “UUUUUUUUUUGAGAGGGCCUCCCUCUCCAG [tttttgagapaired]”, the binding signal (log2 fold change) was 0.79. Consider “GUUGUGUGUGUUGGUCUCUAACACACACAG [gtspaired]”, for which the binding signal (log2 fold change) is -0.349. Next, “GGUUGGUGUGUUGGCAUCUAACACAUCAAC [gtspaired]”: -0.269; “UUUUUUUUUUGAGAGGGUACCCCUCUCCUG [tttttgagapaired]”: 0.388. The value for “GUUGUGUGUGUUGGUACCUAACACACGCAA [gtspaired]” was -0.0906; that for “UUUUUUUUUUGAGACGGCUGCCGUCUUCUA [tttttgagapaired]” was 0.692. Next, “UUUUUUUUUUGAGAUGGACUCCAUCUCCGG [tttttgagapaired]”: 0.0618; “GGUUGGUGUGUUGGUAUCUAACACAUCGAC [gtspaired]”: -0.762; “UUUUUUUUUUGAGACGGGUACCGUCUCCAG [tttttgagapaired]”: 0.469. Turning to “UUUUUUUUUUGAGAUGGGGUCCAUUUCCUG [tttttgagapaired]”, the binding signal (log2 fold change) is 0.858. The value for “UUUUUUUUUUGAGACGGCGGCCGUCUUCUA [tttttgagapaired]” was 0.752; that for “UUUUUUUUUUGAGACGGAGACCGUUUCCUG [tttttgagapaired]” was 0.838. For “UUUUUUUUUUGAGAACGAGUCGUUCUCCAG [tttttgagapaired]”, the binding signal (log2 fold change) is 0.116. Next, “UUUUUUUUUUGAGAGUGAAGCACUCUUCUA [tttttgagapaired]”: -0.32; “UUUUUUUUUUGAGACGGUUUCUGUCUCCGG [tttttgagapaired]”: 0.44. Next, “GUGUGGUGUGUUGGCUUCUAACACAUCGCG [gtspaired]”: -0.672; “GGUGUGUGUGUUGGAACCUAACACACGCGC [gtspaired]”: -0.505. “UUUUUUUUUUGAGAUGGUGUCUAUCUUCUA [tttttgagapaired]”: the binding signal (log2 fold change) was 0.109.

Take “UUUUUUUUUUGAGAGCGUAUCGCUCUUCUG [tttttgagapaired]”: the binding signal (log2 fold change) stood at 0.467. As for “GUGUUGUGUGUUGGAUCCUAACACACAGCG [gtspaired]”, the binding signal (log2 fold change) was -0.636. Next, “UUUUUUUUUUGAGACCGCUACGGUCUCCUG [tttttgagapaired]”: 0.266; “UUUUUUUUUUGAGAACGGAUCGUUCUCCUA [tttttgagapaired]”: -0.0595. The value for “GUGGUUGGUGUUGGCUCCUAACACCAGCCG [gtspaired]” was -0.404. For “GUGGUGUGUGUUGGACCCUAACACACAUCG [gtspaired]”, the binding signal (log2 fold change) was -0.449. Next, “GGUGGUUGUGUUGGCACCUAACACAGCCAC [gtspaired]”: -0.495. Next, “UUUUUUUUUUGAGAUCGGACCGAUCUCCGG [tttttgagapaired]”: 0.346. Next, “UUUUUUUUUUGAGAACGGACCGUUCUCCAG [tttttgagapaired]”: 0.537. For “UUUUUUUUUUGAGAGGGAGGCCCUCUCCUA [tttttgagapaired]”, the binding signal (log2 fold change) worked out at 0.478.

Regarding “UUUUUUUUUUGAGAUGGUGACCAUCUUCUA [tttttgagapaired]”, the binding signal (log2 fold change) was determined as 0.106.

As for “UUUUUUUUUUGAGACGGAGGCUGUCUCCUA [tttttgagapaired]”, the binding signal (log2 fold change) is 0.953. Next, “GUGGUGUGUGUUGGAUUCUAACACACGCUA [gtspaired]”: -0.457; “UUUUUUUUUUGAGACUGAGUCAGUCUCCGG [tttttgagapaired]”: 0.406; “GUGUGGUGUGUUGGAGCCUAACACAUCGCA [gtspaired]”: -0.793. Next, “UUUUUUUUUUGAGACGGCGUCCGUUUCCGG [tttttgagapaired]”: 0.861; “UUUUUUUUUUGAGAGCGGGGCGUUCUCCGG [tttttgagapaired]”: 0.678; “GGUUGGUGUGUUGGCACCUAACACAUCAAC [gtspaired]”: -0.515.

“UUUUUUUUUUGAGACCGCUACGGUCUCCUA [tttttgagapaired]”: the binding signal (log2 fold change) was determined as 0.321. As for “GUGGUUGGUGUUGGCCUCUAACACCGACCG [gtspaired]”, the binding signal (log2 fold change) is -0.783.

Consider “UUUUUUUUUUGAGACGGGCGCCGUCUUCUG [tttttgagapaired]”, for which the binding signal (log2 fold change) amounted to 0.784. As to “UUUUUUUUUUGAGACUGAUCCAGUCUCCAG [tttttgagapaired]”, the binding signal (log2 fold change) stood at 0.213. For the sequence “UUUUUUUUUUGAGAGCGGAGCGUUCUCCAG [tttttgagapaired]”, the binding signal (log2 fold change) is 0.328. Consider “GGUGUUGGUGUUGGCUCCUAACACCAGCGC [gtspaired]”, for which the binding signal (log2 fold change) is -0.291. Next, “UUUUUUUUUUGAGAUGGAUCCUAUCUCCGG [tttttgagapaired]”: 0.0251. Regarding “UUUUUUUUUUGAGAUCGAUGCGAUCUCCGG [tttttgagapaired]”, the binding signal (log2 fold change) is 0.284.

Turning to “UUUUUUUUUUGAGACGGCAACCGUCUCCAG [tttttgagapaired]”, the binding signal (log2 fold change) was found to be 0.47. In the case of “UUUUUUUUUUGAGAGGGGUACCCUCUCCGG [tttttgagapaired]”, the binding signal (log2 fold change) was found to be 0.136. Next, “GGUUGGUGUGUUGGACCCUAACACACCAGC [gtspaired]”: -0.572; “UUUUUUUUUUGAGAUCGAUGCGAUCUCCUG [tttttgagapaired]”: 0.512; “GUUGUGUGUGUUGGACCCUAACACACGCAG [gtspaired]”: -0.252. For the sequence “UUUUUUUUUUGAGACUGCUACAGUCUUCUG [tttttgagapaired]”, the binding signal (log2 fold change) stood at 0.525.

Turning to “UUUUUUUUUUGAGAUCGAUGCGAUCUCCAG [tttttgagapaired]”, the binding signal (log2 fold change) was found to be 0.121. For “GGUGGUGGUGUUGGAGCCUAACACCGCCGC [gtspaired]”, the binding signal (log2 fold change) is -0.234. Next, “GGUGGUGGUGUUGGAUUCUAACACCAUCGC [gtspaired]”: 0.0762. For “UUUUUUUUUUGAGACCGGGGCGGUCUCCGG [tttttgagapaired]”, the binding signal (log2 fold change) came to 0.552. The value for “GGUUGUGGUGUUGGACCCUAACACCGCGAC [gtspaired]” was -0.215; that for “GGUGGUUGUGUUGGCAUCUAACACAGCUAC [gtspaired]” was -0.703. The value for “UUUUUUUUUUGAGAGGGCGACCCUUUCCAG [tttttgagapaired]” was 0.412; that for “GGUUGUUGUGUUGGCACCUAACACAGCAAC [gtspaired]” was -0.412; that for “GUGUGGUGUGUUGGUGUCUAACACACUACA [gtspaired]” was -0.342. Next, “UUUUUUUUUUGAGAGCGGAACGUUCUCCAG [tttttgagapaired]”: -0.0713. As for “UUUUUUUUUUGAGACGGAGGCUGUCUCCAG [tttttgagapaired]”, the binding signal (log2 fold change) was found to be 1.16. Next, “GUGGUGUGUGUUGGCGCCUAACACAUACUA [gtspaired]”: -0.354.

On to “UUUUUUUUUUGAGAGGGCAACCCUCUCCUG [tttttgagapaired]”, for which the binding signal (log2 fold change) came out at 0.581. The value for “UUUUUUUUUUGAGAUGGAAACUAUCUCCAG [tttttgagapaired]” was 0.0357. In the case of “UUUUUUUUUUGAGAGCGAGGCGUUCUCCGG [tttttgagapaired]”, the binding signal (log2 fold change) came to 0.465. In the case of “UUUUUUUUUUGAGAACGUAUCGUUCUUCUA [tttttgagapaired]”, the binding signal (log2 fold change) was -0.138.

For “UUUUUUUUUUGAGAGCGAAUCGUUCUCCGG [tttttgagapaired]”, the binding signal (log2 fold change) came to 0.0736.

“GGUGGUUGUGUUGGAUCCUAACACAGCCGC [gtspaired]”: the binding signal (log2 fold change) is -0.0842. Next, “UUUUUUUUUUGAGAUCGUAUCGAUCUCCAG [tttttgagapaired]”: 0.0317; “GUGUGUUGUGUUGGAUUCUAACACAGCACA [gtspaired]”: 0.237. For “UUUUUUUUUUGAGAUGGCAUCCAUUUCCAG [tttttgagapaired]”, the binding signal (log2 fold change) came out at 0.212.

In the case of “GGUGUGUGUGUUGGCUUCUAACACACGCGC [gtspaired]”, the binding signal (log2 fold change) is -1.14. The value for “UUUUUUUUUUGAGACGGACACCGUCUCCUG [tttttgagapaired]” was 0.62. Take “UUCUCUCUUCCUCCUAGGGAGGAGGGGAGA [ctspaired]”: the binding signal (log2 fold change) was -0.249. The value for “GGUGUUGGUGUUGGCAUCUAACACCAGCGC [gtspaired]” was -1.04; that for “UUUUUUUUUUGAGACUGCGGCAGUUUCCAG [tttttgagapaired]” was 0.601. The value for “GUGUGGUGUGUUGGAUUCUAACACACCGCG [gtspaired]” was -0.567; that for “UUUUUUUUUUGAGAACGGCGCGUUCUCCGG [tttttgagapaired]” was 0.349; that for “UUUUUUUUUUGAGAUGGGUCCUAUCUCCUA [tttttgagapaired]” was 0.559.

With “GUUGGUGGUGUUGGACCCUAACACCGCCAG [gtspaired]”, the binding signal (log2 fold change) was -0.268.

Consider “UUUUUUUUUUGAGAGGGGAUCCUUCUCCAG [tttttgagapaired]”, for which the binding signal (log2 fold change) came to 0.106.
